Binding data for one substance are collected here from paper PMC3380837.

The test concerns the target T1, GST-FL (GST-SHP full length) (UniProt Q15466).
T1 sequence: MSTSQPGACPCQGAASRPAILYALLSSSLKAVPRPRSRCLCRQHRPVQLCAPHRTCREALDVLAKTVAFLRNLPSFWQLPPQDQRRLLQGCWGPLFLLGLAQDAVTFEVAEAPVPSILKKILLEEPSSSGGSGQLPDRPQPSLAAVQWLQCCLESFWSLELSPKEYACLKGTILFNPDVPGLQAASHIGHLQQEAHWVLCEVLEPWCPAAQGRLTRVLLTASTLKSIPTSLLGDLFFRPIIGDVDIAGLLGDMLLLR
In words: pull-down; GST-SHP fusion proteins from E. coli BL21/DE3/RIL as bait; in vitro translated Flag-p53 as prey; only the target purified.

These are yes or no findings as the source states them, for the method shown. Binding seen in cells or lysates may run through a third protein. Some results given as binding are weak or reduced against the parent protein; the word gives no strength. Tags and fused reporters may be left off the sequences shown.

For “Flag-p53, in vitro translated (from UniProt P04637 1-393)”, the binding result is “binds”.
